{"source": "paper PMC4336329", "about": "(PLoS ONE, 2015)", "note": "The whole screen tested about 310,000 compounds, of which about 2,200 (0.71%) showed an effect of 50% or more. Effects have a minus sign here. The list shows a part of the results.", "data": [{"molecular_target": "human ether-à-go-go-related gene (hERG) potassium channel (human, UniProt Q12809)", "sequence (Q12809 whole entry, looked up)": "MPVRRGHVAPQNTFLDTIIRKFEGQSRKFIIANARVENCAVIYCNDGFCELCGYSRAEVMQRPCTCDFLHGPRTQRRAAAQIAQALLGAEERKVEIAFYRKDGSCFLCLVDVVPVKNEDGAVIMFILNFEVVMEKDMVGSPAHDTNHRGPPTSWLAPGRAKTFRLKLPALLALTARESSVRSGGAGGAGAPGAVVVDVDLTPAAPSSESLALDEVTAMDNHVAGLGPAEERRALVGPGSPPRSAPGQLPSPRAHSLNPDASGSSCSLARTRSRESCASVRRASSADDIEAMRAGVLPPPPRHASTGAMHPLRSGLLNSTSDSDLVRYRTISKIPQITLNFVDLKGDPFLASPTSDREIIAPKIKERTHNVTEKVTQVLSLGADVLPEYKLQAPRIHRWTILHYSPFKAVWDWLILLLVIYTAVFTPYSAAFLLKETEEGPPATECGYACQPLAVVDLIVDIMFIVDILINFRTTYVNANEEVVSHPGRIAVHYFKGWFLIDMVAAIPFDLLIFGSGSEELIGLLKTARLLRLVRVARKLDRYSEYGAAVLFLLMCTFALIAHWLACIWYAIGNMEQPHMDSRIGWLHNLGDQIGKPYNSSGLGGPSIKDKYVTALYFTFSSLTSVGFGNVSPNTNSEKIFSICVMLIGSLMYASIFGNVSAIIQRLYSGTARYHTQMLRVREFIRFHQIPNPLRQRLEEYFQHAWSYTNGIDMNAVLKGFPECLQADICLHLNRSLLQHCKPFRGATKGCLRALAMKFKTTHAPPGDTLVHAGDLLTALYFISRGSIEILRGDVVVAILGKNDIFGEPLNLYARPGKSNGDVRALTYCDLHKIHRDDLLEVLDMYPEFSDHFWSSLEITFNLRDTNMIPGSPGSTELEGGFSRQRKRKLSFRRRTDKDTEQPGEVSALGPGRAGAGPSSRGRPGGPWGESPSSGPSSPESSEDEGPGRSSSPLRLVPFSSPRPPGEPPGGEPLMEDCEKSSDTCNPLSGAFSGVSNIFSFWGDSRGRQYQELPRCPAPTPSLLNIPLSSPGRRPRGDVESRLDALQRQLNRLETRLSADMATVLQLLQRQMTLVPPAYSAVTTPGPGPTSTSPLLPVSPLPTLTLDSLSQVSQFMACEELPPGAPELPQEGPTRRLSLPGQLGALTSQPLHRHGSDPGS", "experiment": "primary screen, population patch clamp on CHO cells stably expressing hERG", "units": {"hERG current change (%, negative = inhibition) at 1uM": "%"}, "values": [{"smiles": "CCN(CC)C(=O)C1CCCN(C/C=C/c2ccccc2)C1", "note": "(centres unmarked)", "hERG current change (%, negative = inhibition) at 1uM": -12}, {"smiles": "O=C(O)CCc1ccc(-c2ccccc2)n1CC(=O)Nc1cccc(C(F)(F)F)c1", "hERG current change (%, negative = inhibition) at 1uM": 18.4}, {"smiles": "O=C(O)C1CCN(C(=O)c2cc(F)cc3c2OCOC3)CC1", "hERG current change (%, negative = inhibition) at 1uM": 10.1}, {"smiles": "O=C(N1CCN(CCO)CC1)N1c2ccccc2CCc2ccccc21", "hERG current change (%, negative = inhibition) at 1uM": 9.15}, {"smiles": "Cc1cccc(OCC(=O)NCC(=O)N/N=C/c2cc(Br)cc(Br)c2O)c1", "hERG current change (%, negative = inhibition) at 1uM": 28}, {"smiles": "Cc1ccc(CNC(=O)C2CCC(=O)N(Cc3ccc(Cl)cc3)C2)cc1F", "note": "(centres unmarked)", "hERG current change (%, negative = inhibition) at 1uM": -22.9}, {"smiles": "CCCSc1cc(=O)n(-c2ccccc2)nc1C(=O)O", "hERG current change (%, negative = inhibition) at 1uM": 9.06}, {"smiles": "O=C(N/N=C/c1ccc(Br)s1)Nc1ccccc1", "hERG current change (%, negative = inhibition) at 1uM": 8.11}, {"smiles": "O=C(CC1=NCCNC(c2ccccc2)C1)c1ccccc1O", "note": "(centres unmarked)", "hERG current change (%, negative = inhibition) at 1uM": 6.64}, {"smiles": "CCOC(=O)C(C)Sc1nnc(-c2ccccc2O)n1Cc1ccccc1", "note": "(centres unmarked)", "hERG current change (%, negative = inhibition) at 1uM": -3.58}, {"smiles": "O=C(NCCc1ccccc1)c1ccc2nccnc2c1", "hERG current change (%, negative = inhibition) at 1uM": 20.4}, {"smiles": "CC1(C)O[C@@H]2[C@H](O1)[C@@H](CO)O[C@H]2n1cnc2c(=O)[nH]cnc21", "hERG current change (%, negative = inhibition) at 1uM": 12.4}, {"smiles": "CCOc1ccc(/C=C/C(=O)Nc2ccc(C(N)=O)cc2)cc1OC", "hERG current change (%, negative = inhibition) at 1uM": -3.73}, {"smiles": "CC(C)(C)c1ccc(-n2nc(C(N)=O)c(O)cc2=O)cc1", "hERG current change (%, negative = inhibition) at 1uM": 14.1}, {"smiles": "Cc1sc2ncn(CC(=O)N3CCN(c4ccccn4)CC3)c(=O)c2c1S(=O)(=O)N1CCCCC1", "hERG current change (%, negative = inhibition) at 1uM": 7.98}, {"smiles": "CC(Sc1nc2ncc(Cl)cc2[nH]1)C(=O)NC1(C#N)CCCCC1", "note": "(centres unmarked)", "hERG current change (%, negative = inhibition) at 1uM": 8.62}, {"smiles": "Cc1cc(=O)[nH]c(N/N=C/C(C)c2ccccc2)n1", "note": "(centres unmarked)", "hERG current change (%, negative = inhibition) at 1uM": 5.22}, {"smiles": "COc1cccc(C2C(C(C)=O)=C(O)C(=O)N2CCc2c[nH]c3ccccc23)c1", "note": "(centres unmarked)", "hERG current change (%, negative = inhibition) at 1uM": 9.9}, {"smiles": "Cc1cc(Cl)ccc1OCCCC(=O)NCCN1C(=O)S/C(=C\\c2cccnc2)C1=O", "hERG current change (%, negative = inhibition) at 1uM": 5.92}, {"smiles": "COc1ccc(C(=O)NCC(=O)OCC(=O)N2CCC(C)CC2)cc1OC", "hERG current change (%, negative = inhibition) at 1uM": 9.02}, {"smiles": "Cc1ccc(S(=O)(=O)N2CCCN(C(=O)c3ccc(-n4cccn4)cc3)CC2)cc1", "hERG current change (%, negative = inhibition) at 1uM": -22}, {"smiles": "CN1CCC(=O)N([C@H](CN=[N+]=[N-])c2ccccc2)CC1", "hERG current change (%, negative = inhibition) at 1uM": 11.6}, {"smiles": "C=CCOC(=O)C(C#N)c1nc2ccccc2nc1N1CCC(C(=O)OCC)CC1", "note": "(centres unmarked)", "hERG current change (%, negative = inhibition) at 1uM": 8.55}, {"smiles": "Cc1ccc(NC(=S)C2=C(O)c3sccc3N(C)S2(=O)=O)cc1", "hERG current change (%, negative = inhibition) at 1uM": 11.4}, {"smiles": "CCOC(=O)C1CCN(C(=O)COc2ccc(Br)cc2)CC1", "hERG current change (%, negative = inhibition) at 1uM": -19.5}, {"smiles": "COc1ccccc1C(=O)N(C)CC(=O)Nc1ccc(N2CCOCC2)cc1", "hERG current change (%, negative = inhibition) at 1uM": 6.54}, {"smiles": "COc1ccccc1Nc1ccc(C(=O)NC2CCCCC2)cn1", "hERG current change (%, negative = inhibition) at 1uM": 1.13}, {"smiles": "Cc1ccc(NC(=O)CN2C(=O)C3C4C=CC(C4)C3C2=O)cc1S(=O)(=O)N(C)C", "note": "(centres unmarked)", "hERG current change (%, negative = inhibition) at 1uM": 10.6}, {"smiles": "CSCCCNC(=O)c1ccc(OC2CCN(C(=O)c3cccnc3)CC2)cc1", "hERG current change (%, negative = inhibition) at 1uM": 3.06}, {"smiles": "Cc1cccc(OCCC(=O)NCC(c2ccco2)N2CCCCC2)c1", "note": "(centres unmarked)", "hERG current change (%, negative = inhibition) at 1uM": 7.87}, {"smiles": "Cn1ncc(Br)c1C(=O)N1CCCC1", "hERG current change (%, negative = inhibition) at 1uM": 14.4}, {"smiles": "CC(=C/c1ccc(C(C)C)cc1)/C=N/NC(=O)Cn1nnnc1N", "hERG current change (%, negative = inhibition) at 1uM": 15.6}, {"smiles": "O=C(Nc1nnc(S(=O)(=O)Nc2ccccc2)s1)c1ccccc1Cl", "hERG current change (%, negative = inhibition) at 1uM": 14.4}, {"smiles": "CCN(CC)c1cc(CS(=O)c2ccccc2)nc(-c2ccccc2)n1", "note": "(centres unmarked)", "hERG current change (%, negative = inhibition) at 1uM": 14.5}, {"smiles": "CC(/C=C1\\SC(=Nc2cccnc2)NC1=O)=C\\c1ccccc1", "hERG current change (%, negative = inhibition) at 1uM": 13.9}, {"smiles": "C=CCOc1ccc(CNc2ccc3[nH]c(=O)[nH]c3c2)cc1", "hERG current change (%, negative = inhibition) at 1uM": 1.41}, {"smiles": "CC1CCc2nc3sc4c(c3c(N)c2C1)CCCC4", "note": "(centres unmarked)", "hERG current change (%, negative = inhibition) at 1uM": -1.17}, {"smiles": "CN1CCN(NC(=O)c2ccc(COc3ccccc3Br)o2)CC1", "hERG current change (%, negative = inhibition) at 1uM": 6.02}, {"smiles": "O=C(CN1CCN(C(=O)c2ccco2)CC1)Nc1ccccc1", "hERG current change (%, negative = inhibition) at 1uM": 6.56}, {"smiles": "O=C(Cn1[nH]c(=O)c2ccccc2c1=O)OCC(=O)c1ccc(Br)cc1", "hERG current change (%, negative = inhibition) at 1uM": 16.6}, {"smiles": "Cc1cc(C(=O)COC(=O)CNC(=O)c2ccc(F)cc2)c(C)n1Cc1ccco1", "hERG current change (%, negative = inhibition) at 1uM": 7.35}, {"smiles": "O=C(Cc1c[nH]c2ccccc12)NCc1ccncc1", "hERG current change (%, negative = inhibition) at 1uM": 6.5}, {"smiles": "CNCc1ccccc1OCC(=O)Nc1ccccc1OC", "hERG current change (%, negative = inhibition) at 1uM": 3.07}, {"smiles": "Cc1ccc(NC(=O)c2c(Cl)n(C)c3ccccc23)cc1", "hERG current change (%, negative = inhibition) at 1uM": -8.64}]}]}
